# Assay results published in the BET-seq Pho4 binding data (Le et al. 2018).
# This is one part of the list. These are noisy estimates, calculated here from bound and input reads.
# Target: T1, Pho4 (S. cerevisiae) (UniProt P07270)
# T1 sequence: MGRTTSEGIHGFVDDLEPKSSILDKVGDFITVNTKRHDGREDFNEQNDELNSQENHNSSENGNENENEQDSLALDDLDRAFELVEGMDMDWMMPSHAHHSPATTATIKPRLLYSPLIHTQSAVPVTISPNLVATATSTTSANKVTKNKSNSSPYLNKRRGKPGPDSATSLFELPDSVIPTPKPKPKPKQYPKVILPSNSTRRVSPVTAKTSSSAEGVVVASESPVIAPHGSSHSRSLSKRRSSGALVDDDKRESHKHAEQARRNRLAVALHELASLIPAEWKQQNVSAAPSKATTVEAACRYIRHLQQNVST
# Test: relative binding free energy (BET-seq); higher = weaker binding
# Details: reference: library average
row,Sequence,relative binding free energy
1,CGTTACACGTGGTGGT,0.04 kcal/mol
2,AAAGGCACGTGGGCGG,-0.21 kcal/mol
3,TCTTGCACGTGTGACG,0.15 kcal/mol
4,AGGAGCACGTGTCATG,-0.05 kcal/mol
5,TTCAACACGTGTGGGC,0.09 kcal/mol
6,TGCGACACGTGTGTGT,-0.03 kcal/mol
7,TGGCCCACGTGGGGGT,-0.34 kcal/mol
8,TCGGTCACGTGTCTTG,0.15 kcal/mol
9,AAAGGCACGTGGCAGT,-0.16 kcal/mol
10,GTATGCACGTGCAGGT,0.02 kcal/mol
11,TGAAGCACGTGTGGAA,-0.02 kcal/mol
12,CGATGCACGTGAGTGA,0.32 kcal/mol
13,GTGGTCACGTGTGGGC,0.21 kcal/mol
14,GCGTTCACGTGTTTGA,0.11 kcal/mol
15,GAGTGCACGTGAAGTG,0.18 kcal/mol
16,TGGAACACGTGCTGGT,0.02 kcal/mol
17,GGGTACACGTGCGTGG,0.03 kcal/mol
18,TGGTACACGTGTTGTT,0.06 kcal/mol
19,CTTGGCACGTGGGGCA,-0.22 kcal/mol
20,TTATGCACGTGGATTT,0 kcal/mol
21,GTTGTCACGTGCTGAT,0.11 kcal/mol

row,Sequence,relative binding free energy
1,GGATGCACGTGTGCTA,0.08 kcal/mol
2,GTTGGCACGTGTGTGT,-0.05 kcal/mol
3,TTGATCACGTGGCAGG,0.05 kcal/mol
4,GCTGGCACGTGGGGCT,-0.2 kcal/mol
5,ACGGACACGTGTTGTG,0.03 kcal/mol
6,TTGCACACGTGACGGG,0.11 kcal/mol
7,AGGGCCACGTGATTGT,0.07 kcal/mol
8,AGGCGCACGTGCTAGG,-0.19 kcal/mol
9,TTGGTCACGTGGCTAG,-0.1 kcal/mol
10,TTTTTCACGTGGTAGA,0.32 kcal/mol
11,ATAAACACGTGTAATG,0.23 kcal/mol
12,ATTATCACGTGGGCTA,0.02 kcal/mol
13,TGATACACGTGTAAGT,0.18 kcal/mol
14,GAAAGCACGTGTGTTG,-0.09 kcal/mol
15,CGGTACACGTGGAAGG,0.1 kcal/mol
16,GTGGTCACGTGGGCTC,0 kcal/mol
17,GTTACCACGTGGGGTC,-0.01 kcal/mol
18,CGCTTCACGTGGGAGG,0.06 kcal/mol
19,TTAGTCACGTGCGGCG,-0.07 kcal/mol
20,TGGCTCACGTGGTTTA,0.18 kcal/mol
21,CGGTGCACGTGAGGCT,0.02 kcal/mol

row,Sequence,relative binding free energy
1,CTGTTCACGTGTCTGT,0.18 kcal/mol
2,AATGACACGTGACGGT,0.14 kcal/mol
3,CGGCGCACGTGGTTTG,-0.22 kcal/mol
4,TTCGACACGTGGCGGG,0.14 kcal/mol
5,GGGAACACGTGGGGTT,-0.03 kcal/mol
6,AGTGGCACGTGTTTGG,-0.07 kcal/mol
7,GTGTGCACGTGTATGA,0.07 kcal/mol
8,CGATGCACGTGAGGGG,0.15 kcal/mol
9,TGGGGCACGTGAATGA,0.22 kcal/mol
10,AAGTTCACGTGATGAG,0.33 kcal/mol
11,TGACGCACGTGGAGGG,-0.11 kcal/mol
12,AAGGTCACGTGGCTGT,0.06 kcal/mol
13,CGGGGCACGTGTGTCA,-0.06 kcal/mol
14,GTGTTCACGTGGGGGT,0.2 kcal/mol
15,GGTTACACGTGATCGA,0.38 kcal/mol
16,AGTAGCACGTGAGGAT,0.09 kcal/mol
17,TATATCACGTGATGTG,0.22 kcal/mol
18,TTTGCCACGTGCGTGT,-0.15 kcal/mol
19,CGTGGCACGTGTTGTC,0.08 kcal/mol
20,GGGATCACGTGGGCAA,0.02 kcal/mol
21,TGGTTCACGTGATCGG,0.34 kcal/mol
